# Hit rate of the full screen: of about 270,000 compounds, about 1,100 (0.41%) were called active. Another 3% or so got no clear call; they are omitted. Calls follow the shape of the full dose curve. The entries are a selection whose mix differs from that of the whole data set. Entries without a call were filed so in the source.
# Assay: qHTS Assay for Inhibitors of Influenza NS1 Protein Function; also: actives are rising curves; nearly all actives have a fitted effect of over 50% in size
# Conditions: activity, positive = more growth: at 46.1 µM (top of the series)
# Description: NIH Chemical Genomics Center [NCGC]
# NIH Molecular Libraries Probe Centers Network [MLPCN]
# Assay Submitter (PI): Daniel Engel
# Influenza is a world-wide public health problem and emerging forms of the virus have the potential to cause a pandemic of equal or greater magnitude to the outbreaks recorded in 1918, 1957 or 1968. Vaccine development is proceeding and there also exist two classes of anti-influenza compounds. However these therapeutic modalities are neither fully effective nor widely enough available to fulfill global needs. In addition their potential usefulness against newly emergent strains is not known. Efforts are needed to develop novel agents against influenza virus, including broad-spectrum agents. Identification of small molecules that inhibit NS1 function either directly or by interfering with specific cellular pathways may be a key to increasing our defense against the virus.
# We have miniaturized and optimized a cell based assay in which NS1 from influenza A is expressed in the budding yeast S. cerevisiae. NS1 is a multi-functional protein that counters the host innate immune response and facilitates viral versus cellular gene expression. Expression of NS1 causes a pronounced slow growth phenotype in yeast due to its intrinsic molecular activities. Small molecules that suppress the slow growth phenotype can be identified by a straightforward growth recovery assay using optical density (OD) as the measurement. The same yeast strain not expressing NS1 was used as positive control in the yeast growth recovery assay.
# The yeast S. cerevisiae control and NS1 expressing cells were kindly supplied by laboratory of Dr. Daniel Engel, University of Virginia. Yeast starter cultures were stored in single use aliquots at -80C.
# 1. Yeast culture medium per liter: 1.2 g Yeast Nitrogen Base (w/out amino acids and Ammonium Sulphate), 5.0g Ammonium Sulphate, 0.77g -URA DO (drop-out) Supplement, adjust pH to 6.0. Adjust to 2% glucose prior to inoculating with yeast.
# 2. Yeast assay medium: 1.2 g Yeast Nitrogen Base (w/out amino acids and Ammonium Sulphate), 5.0g Ammonium Sulphate, 0.77g -URA DO (drop-out) Supplement, adjust pH to 6.0. Adjust to 2% D-galactose prior to inoculating with yeast.
# 1. Inoculate 100 mls of yeast culture medium with 1 ml of frozen yeast aliquote. Incubate overnight at 30C, 250RPM.
# 2. Harvest overnight culture at 4000 RPM and wash pellet with 15 mls H2O 3x.
# 3. Re-suspend washed pellet in 10 mls of yeast assay medium.
# 4. Prepare a 1:100 dilution of re-suspended culture in yeast assay medium.
# 5. Dispense 3.5 ul per well of reagents in step 4 in columns 2-48 in a black clear bottom 1536 well plate.
# 6. Dispense 3.5 ul per well of yeast assay medium in column 1 only.
# 7. Transfer 23 nl of compound per well.
# 8. Dispense 3.5 ul per well of yeast assay medium in columns 1-48.
# 9. Read plate using Viewlux protocol for optical density 600 (OD600) using excitation filter 600nm.
# Potency is read from the fitted curve at half-maximal effect.
Compound,"activity, positive = more growth",Potency
Fc1ccc(-c2nnc(Cc3ccc(Cl)cc3)o2)cc1,inactive: -32.3%,
Cc1[nH]c2ccccc2c(=O)c1SC(F)(F)C(F)C(F)(F)F (stereo unspecified),inactive: -93.4%,
O=C(CN1CCOc2ccccc21)N1CCC(Cc2ccccc2)CC1,-68.9%,
Cc1cccc(CSc2nnc(-c3ccco3)o2)c1,inactive: -59.7%,
CN[C@H]1C[C@H]2O[C@@](C)([C@H]1OC)n1c3ccccc3c3c4c(c5c6ccccc6n2c5c31)C(=O)NC4,67.4%,
O=C(N/N=C/c1cccc(C(F)(F)F)c1)c1ccccc1O,inactive: -19.1%,
CN(C)S(=O)(=O)c1cccc(-c2nn(-c3ccccc3)cc2/C=C2\SC(=S)NC2=O)c1,35.6%,
O=C1CCN(CCc2ccccc2)CCN1[C@H](CSc1ccccc1)c1ccccc1,inactive: -49.7%,
CCC(=O)c1ccc(OCC(O)CN2CCCCC2)cc1 (stereo unspecified),29.6%,
CCN1CCN(c2oc(COc3ccc(-c4ccccc4)cc3)nc2C#N)CC1,-82.4%,
Cc1ccc(/C=N\NC(=O)C2COc3cc4ccccc4cc3O2)o1 (stereo unspecified),-36%,
Nc1ccccc1SCC(=O)Nc1cccc2ccccc12,17.7%,
Cc1c(/C=N/n2cnnc2)c2ccccc2n1CCOc1ccccc1,-89.7%,
CC(C)Cc1ccc(C(C)C(=O)Nc2ccccc2O)cc1 (stereo unspecified),inactive: -46%,
CCn1nc(C(=O)Nc2ccc3nc(C)sc3c2)c2ccccc2c1=O,-33.3%,
CC(C)CC(COCc1ccc(Cl)cc1)N1CCN(C(=O)c2ccc(Cl)cc2Cl)CCC1=O (stereo unspecified),-44.7%,
CC(=O)Nc1nc2ccc(Br)cc2s1,inactive: -75.4%,
CCCCC(c1nnnn1CS(=O)(=O)c1ccc(C)cc1)N1CCN(c2ccccc2)CC1 (stereo unspecified),,active: 7.08 µM
CC1CCCN(c2nc3c(c(=O)n(C)c(=O)n3C)n2CCSc2nc3ccccc3s2)C1 (stereo unspecified),-92.1%,
Fc1ccc(-[n+]2nc(Nc3ccccc3)sc2-c2c3ccccc3cc3ccccc23)cc1,-148%,
O=c1oc2ccccc2cc1-c1ccc(O)cc1,-45.4%,
N#CC1=C(N)N2C(=C(C#N)C13CCCCC3)SC1CCCCC12O (stereo unspecified),-32.7%,
Cc1ccn(-c2ccc(NC(=O)c3cccs3)cc2)n1,inactive: -70.9%,
CC1CN(S(=O)(=O)c2ccc(NC(=O)c3cc(-c4ccccc4O)n[nH]3)cc2)CC(C)O1 (stereo unspecified),-48%,
O=C(c1ccco1)N1CCN(c2c(-c3ccccc3)c3cc(Cl)ccc3[nH]c2=O)CC1,-43.2%,
Cc1ccccc1-c1nc(CS(=O)CC(=O)N2CCC3(CC2)OCCO3)c(C)o1 (stereo unspecified),,active: 1.12 µM

Compound,"activity, positive = more growth",Potency
Cc1nn(CCc2n[nH]c(=S)n2-c2ccc(F)c(Cl)c2)c(C)c1[N+](=O)[O-],35.8%,
CC(=O)NC(c1ccc(C(C)C)cc1)c1ccc2cccnc2c1O (stereo unspecified),inactive: -122%,
O=C(CNc1cccc(F)c1)N1CCc2ccccc2C1,inactive: -34%,
O=C(Nc1cnn(C23CC4CC(CC(C4)C2)C3)c1)c1cnn2c(C(F)(F)F)cc(-c3ccco3)nc12,-31.4%,
Cc1ccc(-c2nnc(Sc3nc4ccccc4o3)c3ccccc23)cc1,-38%,
CCc1ccc2oc(-c3cc(N)cc(C)c3O)nc2c1,,active: 14.1 µM
Cn1c(=O)c2c(nc(CN3CCc4ccccc4C3)n2Cc2ccccc2F)n(C)c1=O,-43.2%,
CC1CCN(Cc2c(O)ccc3c2O/C(=C\c2ccco2)C3=O)CC1,,active: 8.91 µM
N#CCCN1CCN(C(=S)c2ccc(-c3cc(Cl)ccc3Cl)o2)CC1,inactive: -29.7%,
COc1ccc(/C=C(\NC(=O)c2ccc([N+](=O)[O-])cc2)C(=O)NCCCN2CCOCC2)cc1,31.5%,
Cc1cc2c(cc1C)C(c1ccccc1OC(C)C)CC(=O)N2 (stereo unspecified),inactive: -45.2%,
Cc1cc(Cl)c(S(=O)(=O)N2CCN(c3ccccn3)CC2)cc1OCC(=O)NC1CCCCC1,inactive: -33.5%,
N#Cc1nc(-c2ccc(OCc3ccccc3)cc2)oc1NCCN1CCOCC1,-74.8%,
Cc1ccc2cc(/C=C/C(=O)c3ccco3)c(Cl)nc2c1,inactive: -41.1%,
CCc1cc(OCCCCNCc2ccccc2)ccc1Cl,inactive: -31.3%,
CCc1cccc(NC(=O)CS(=O)Cc2nc(-c3ccc(C)cc3)oc2C)c1 (stereo unspecified),-65.7%,
Cc1cc(C)c(S(=O)(=O)/N=C2/C=C(Sc3ncn[nH]3)C(=O)c3ccccc32)cc1C,-16.6%,
O=[N+]([O-])c1cc(-n2cnnn2)ccc1N1CCC(Cc2ccccc2)CC1,-76.6%,
CN(C)c1ccc(/C=C/C=C2/SC(=S)N(c3ccccc3)C2=O)cc1,37.9%,
CC(C)CCN(C)c1ccc(/C=N/n2cnnc2)cc1,-47.9%,
COC(=O)c1ccc(Nc2nnc(-c3ccc(C)c(S(=O)(=O)NCC4CCCO4)c3)c3ccccc23)cc1 (stereo unspecified),inactive: -46.2%,
COC(=O)c1sc(NC(=O)c2ccc(OC)cc2OC)nc1C,36.3%,
C#CCOc1ccc(/C=C2/C(=O)N(c3cccc(C(=O)O)c3)N=C2C)cc1OC,,active: 11.2 µM
CC(=O)c1c(C)[nH]c(C(=O)OCC(=O)Nc2sc3c(c2C#N)CCC(C)C3)c1C (stereo unspecified),inactive: -39.1%,
CC1CC(C)CN(c2ccc(C(=O)NCc3ccc4c(c3)OCO4)cc2[N+](=O)[O-])C1 (stereo unspecified),,active: 10 µM
Cc1ccc(S(=O)(=O)N2CCOC23CCN(C(=O)c2cc(Cl)ccc2Cl)CC3)cc1,inactive: -59.9%,

Compound,"activity, positive = more growth",Potency
CCOC(=O)N1CCN(C(=O)CCC(=O)N2CCOc3ccc(C)cc32)CC1,,active: 5.62 µM
O=C1C(=O)c2cccc3cccc1c23,-53.7%,
Cc1cccc2nc(-c3ccccc3)nc(N[C@@H](CO)c3ccccc3)c12,-66.4%,
C/C(=N\NC(N)=O)c1cccc(Cl)c1,40.2%,
O=C(NCc1ccccc1F)c1ccc(S(=O)(=O)Nc2cccc(C(F)(F)F)c2)cc1,-57.5%,
COc1ccccc1-c1nc(C#N)c(N2CCN(c3ccccc3)CC2)o1,-48.4%,
CCOc1ccc(N=C2NC(=O)S/C2=C\c2ccc(N(C)C)cc2)cc1,inactive: -29.8%,
COC(=O)c1[nH]c2cccc(C)c2c1NC(=O)CN1CCN(c2ccccc2OC)CC1,inactive: -53.8%,
COc1ccc(C=C(c2nc3ccccc3s2)c2nc3ccccc3s2)cc1O,,active: 15.8 µM
CCOC(=O)c1ccc(NS(=O)(=O)c2ccc(SC)cc2)cc1,-36.3%,
S=C(NCc1ccccn1)Nc1cccc(Cl)c1,-31.9%,
Cc1ccc(NC(=O)c2ccc(CSc3nnc(-c4ccncc4)n3C)cc2)c(C)c1,34%,
O=C(OCC#CCSc1nc2ccccc2o1)c1ccco1,-53.4%,
COC(=O)c1noc(-c2ccc(OC)cc2)n1,-32.6%,
Cc1ccc(C(=O)NC(=S)NNS(=O)(=O)c2ccc(C)cc2)cc1,inactive: -66.6%,
O=C(C1CCCCN1S(=O)(=O)c1ccc(F)cc1)N1CCN(c2ccccc2F)CC1 (stereo unspecified),inactive: -46.9%,
CC1(C)Cc2c(sc3c2c(=N)n(Cc2ccco2)c(=O)n3CC(=O)Nc2ccccc2)CO1,-62%,
c1ccc(Cc2nnc3sc(-c4cccs4)nn23)cc1,inactive: -69.9%,
CCOC(=O)c1c(/N=C/c2cc([N+](=O)[O-])ccc2O)sc(C)c1C,-30.7%,
COC(=O)CC(=O)CSc1nc2c(cc1C#N)CCC2,116%,
CCOC(=O)Cn1c(CN(Cc2ccccc2)Cc2ccccc2)nc2c1c(=O)n(C)c(=O)n2C,-83.7%,
CC1CC(C)CN(c2nc3c(c(=O)[nH]c(=O)n3C)n2CCCSc2nc3ccccc3s2)C1 (stereo unspecified),-58.7%,
COc1c(O)cc2c(c1O)C(=O)CC(c1ccccc1)O2 (stereo unspecified),inactive: -47.5%,
COc1ccc(N(CC(=O)Nc2ccc3c(c2)OCCO3)S(=O)(=O)c2cccnc2)cc1,inactive: -61%,
Cc1cc(C)n2nc(SCC(=O)Nc3c(C)n(C)n(-c4ccccc4)c3=O)nc2n1,,active: 5.01 µM
COc1cccc(NC(=O)Cc2ccc3ccccc3c2)c1,inactive: -32.1%,

Compound,"activity, positive = more growth",Potency
CN(C1CCCC1)C1CCN(C(=O)CNC(=O)/C=C/c2ccc(F)cc2)CC1,36.1%,
COc1ccccc1N1CCN(/N=C/c2cccc(O)c2)CC1,inactive: -33.9%,
C/C(=N\NC(=O)c1ccc(CN2CCOCC2)cc1)c1ccc([N+](=O)[O-])cc1,36.1%,
Cc1oc(-c2ccc(Cl)cc2)cc1-c1nn2c(-c3ccoc3C)nnc2s1,,active: 10 µM
COC(=O)c1sc(NC(=O)C(C)C)c(C(=O)OC)c1C,inactive: -10.3%,
COCCCN1C(=O)c2[nH]nc(-c3ccccc3O)c2C1c1ccc(Cl)cc1 (stereo unspecified),-102%,
CC(=O)OCC1O[C@@H](O[C@@H]2C[C@H]3C(C)(C)[C@H](OC(C)=O)CC[C@]3(C)[C@H]3CC[C@]45C[C@]4(CC[C@H]5[C@@H](C)C[C@@H](O)[C@H](O)C(C)(C)O)[C@@]32C)[C@H](O)[C@@H](O)[C@@H]1O (stereo partly specified),-43.1%,
O=C1c2[nH]nc(-c3ccccc3O)c2C(c2cccc(Cl)c2)N1CC1CCCO1 (stereo unspecified),-35.5%,
CCOc1ccccc1NC(=O)COC(=O)CN(C)S(=O)(=O)c1ccc(C)cc1,-98.2%,
Cc1noc(NS(=O)(=O)c2ccc(NC(=O)COc3ccccc3)cc2)c1C,-39%,
O=C1N=C(N2CCCC2)S/C1=C\c1cccc(Br)c1,-34.3%,
COc1ccc(-c2nc(Cn3c(SCc4cccc(F)c4)nc4ccncc43)c(C)o2)cc1OC,inactive: -80.2%,
COc1cc(S(=O)(=O)Nc2cccnc2)ccc1Cl,37.2%,
CCC(C(=O)NC1CCCC1)N(C(=O)Cn1nnc(-c2ccc(OC)c(OC)c2)n1)C1CCCCC1 (stereo unspecified),inactive: -45.5%,
COc1ccccc1OCc1cc(C(=O)N2CCN(C)C(c3ccccc3)C2)no1 (stereo unspecified),-67%,
c1ccc(-c2nc(N3CCCCCC3)nc(-n3ccnc3)n2)cc1,inactive: -88.4%,
Cc1ccc(-c2cc(C(=O)N3CCCCC3)c3ccccc3n2)cc1C,-134%,
CCNC(=O)n1nccc1C(C)Oc1ccccc1 (stereo unspecified),-46.8%,
COC(=O)c1c(NC(=O)CCc2ccc(C)o2)sc(C)c1C,-42.4%,
COc1ccc(N(CC(O)Cn2c(C)nc3ccccc32)S(=O)(=O)c2ccccc2)cc1 (stereo unspecified),28.2%,
COC(=O)c1sccc1NC(=O)Cc1ccc(Br)cc1,-74.4%,
Cc1csc(NC(=O)CSc2nnc(Cc3cccn3C)n2CCc2ccccc2)n1,-37.3%,
O=C(Oc1cccc(N2C(=O)CCC2=O)c1)c1ccccc1,37.9%,

# Reference: PubChem BioAssay AID2326 (National Center for Advancing Translational Sciences (NCATS), 2010)
